The other results are listed elsewhere or left out. At the low end of the ranking the order means little.
What follows are sequences tested against T1, GST-Rok (full length) (UniProt O34857) (assay: protein binding microarray). Conditions: Rok is a gene silencer of Bacillus subtilis; high values mean tight binding; most listed sequences are background and not binding sites; double strand, one strand shown.
T1 sequence: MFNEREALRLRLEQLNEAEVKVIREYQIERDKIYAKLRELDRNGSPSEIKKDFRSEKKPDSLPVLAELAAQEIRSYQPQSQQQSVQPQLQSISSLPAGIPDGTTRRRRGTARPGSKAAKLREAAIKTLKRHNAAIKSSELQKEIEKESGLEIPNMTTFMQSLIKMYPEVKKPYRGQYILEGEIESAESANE
In the case of CCATCACC, the binding signal is reported as -0.203 E-score.
ACCAGCTC gave a binding signal of -0.165 E-score.
In the case of GAACTCTC, the binding signal is reported as 0.0241 E-score.
With AAGCTATG the binding signal was 0.0177 E-score.
ATCACTCA was tested, and the binding signal was 0.155 E-score.
Work on AGAGATGA yielded a binding signal of -0.0694 E-score.
Sequence ACACCGAT has a binding signal of 0.00689 E-score.
AGTTAGGA gave a binding signal of 0.158 E-score.
For CTTCTTCA, the binding signal was -0.176 E-score.
GACGCTGC was tested, and the binding signal was -0.188 E-score.
In the case of CGATGAGA, the binding signal is reported as 0.0331 E-score.
AAAGCCTA was tested, and the binding signal was -0.0192 E-score.
Sequence CGTCCAGC has a binding signal of -0.013 E-score.
For ACCCGAAA, the binding signal was -0.25 E-score.
Work on AGGACTCC yielded a binding signal of -0.253 E-score.
In the case of CCGTCGGC, the binding signal is reported as -0.252 E-score.
AGATGCCC gave a binding signal of -0.263 E-score.
Work on GCCCCACA yielded a binding signal of -0.364 E-score.
Work on AAAGCTTC yielded a binding signal of -0.133 E-score.
CTGATCTC showed a binding signal of -0.039 E-score.
For AGGTAGCA, the binding signal was 0.161 E-score.
Sequence ATGGGTCG has a binding signal of -0.172 E-score.
Work on ACCATATA yielded a binding signal of 0.243 E-score.
ATCCAGGA showed a binding signal of 0.142 E-score.
For TCGCAAGA, the binding signal was -0.0621 E-score.
GGCCCGTA showed a binding signal of -0.126 E-score.
Work on ATCATGAA yielded a binding signal of 0.136 E-score.
Work on CCTGGCCG yielded a binding signal of -0.289 E-score.
CCCGACCA showed a binding signal of -0.18 E-score.
ACCAGAAG gave a binding signal of 0.0484 E-score.
With CCCTGTAG the binding signal was -0.162 E-score.
In the case of CACATTGA, the binding signal is reported as 0.16 E-score.
With CAGTCATC the binding signal was -0.0997 E-score.
With ATGACCTG the binding signal was -0.114 E-score.
ATCGGAGA was tested, and the binding signal was 0.0123 E-score.
Sequence TAGCTGCA has a binding signal of 0.0594 E-score.
In the case of CATTCGCC, the binding signal is reported as -0.0598 E-score.
With CGAGGAGA the binding signal was -0.127 E-score.
With TAAACACA the binding signal was 0.21 E-score.
Work on CGGCGAAG yielded a binding signal of 0.0313 E-score.
AGCGAGGA gave a binding signal of -0.294 E-score.
Sequence AGATGCGG has a binding signal of -0.156 E-score.
With TATTATCA the binding signal was 0.227 E-score.
Work on CCCACGAA yielded a binding signal of -0.202 E-score.
Work on GTAAAACA yielded a binding signal of 0.201 E-score.
In the case of CATACGTA, the binding signal is reported as 0.158 E-score.
Sequence AGCTACTG has a binding signal of 0.294 E-score.
With GTTTCGGA the binding signal was 0.0521 E-score.
Work on CATCACTA yielded a binding signal of 0.0263 E-score.
With AACATGCG the binding signal was -0.133 E-score.
For CCAAGACA, the binding signal was -0.134 E-score.
CATCCGTA gave a binding signal of 0.112 E-score.
CGCCCTGA gave a binding signal of -0.353 E-score.
For ATCGTGCG, the binding signal was -0.0403 E-score.
Work on ATAGTCTG yielded a binding signal of 0.347 E-score.
AGCGCCCT showed a binding signal of -0.354 E-score.
CTCGGCAA gave a binding signal of -0.0472 E-score.
TAGAGACA showed a binding signal of 0.233 E-score.
In the case of TAAATGAA, the binding signal is reported as 0.0933 E-score.
With CGCGTCAG the binding signal was -0.243 E-score.
For AGTCAAGA, the binding signal was -0.054 E-score.
GCCGGGGA gave a binding signal of -0.294 E-score.
AAGTTGGC was tested, and the binding signal was 0.11 E-score.
Sequence CCCTGACA has a binding signal of -0.211 E-score.
CAAACGCC gave a binding signal of -0.178 E-score.
CTGTACCA showed a binding signal of -0.0416 E-score.
Sequence GGCCAGCA has a binding signal of -0.363 E-score.
Work on AATTACCA yielded a binding signal of 0.326 E-score.
In the case of CATATCAC, the binding signal is reported as 0.0979 E-score.
GATGTCCA showed a binding signal of -0.0564 E-score.
CCGACTTC was tested, and the binding signal was -0.187 E-score.
Sequence TCAGAGAA has a binding signal of -0.154 E-score.
CCGGTTCG showed a binding signal of -0.219 E-score.
With AAAAAATT the binding signal was -0.0604 E-score.
For AGAAGGCT, the binding signal was -0.245 E-score.
With CAAGTCTG the binding signal was -0.111 E-score.
GCGTCTAC was tested, and the binding signal was 0.0278 E-score.
Sequence CCATCAAA has a binding signal of -0.0223 E-score.
CAGGGATG gave a binding signal of -0.217 E-score.
Sequence AGAGATTA has a binding signal of 0.055 E-score.
Sequence AGATCCCC has a binding signal of -0.261 E-score.
CGTTCCCC gave a binding signal of -0.344 E-score.
With ATCATCCA the binding signal was -0.0709 E-score.
GCATGAGC showed a binding signal of -0.161 E-score.
Work on ACGGCAGG yielded a binding signal of -0.232 E-score.
For CACAATCA, the binding signal was -0.158 E-score.
Work on CTGCTCGA yielded a binding signal of -0.167 E-score.
For ATAATAAA, the binding signal was 0.297 E-score.
Sequence ATAATTGA has a binding signal of 0.257 E-score.
GTGCTATA was tested, and the binding signal was 0.147 E-score.
In the case of ACTATCCA, the binding signal is reported as 0.202 E-score.
ACACGGGA was tested, and the binding signal was -0.241 E-score.
Sequence CCTTTAAG has a binding signal of -0.233 E-score.
For ATAGTGAA, the binding signal was 0.142 E-score.
With AGAACGGG the binding signal was -0.151 E-score.
Work on GTCAGACA yielded a binding signal of -0.0831 E-score.
For GGGAGCCA, the binding signal was -0.337 E-score.
For AACGGACG, the binding signal was -0.262 E-score.
Work on ATAGGAAC yielded a binding signal of 0.113 E-score.
Sequence GCTAAAGC has a binding signal of -0.219 E-score.
For CTAAAACA, the binding signal was 0.238 E-score.
CCGATTTA gave a binding signal of 0.178 E-score.
Sequence CGTAATGC has a binding signal of 0.0534 E-score.
Work on ACGCCGCA yielded a binding signal of -0.209 E-score.
In the case of CCCACATA, the binding signal is reported as 0.000957 E-score.
Work on CAAAATGC yielded a binding signal of 0.102 E-score.
In the case of ATCACGAT, the binding signal is reported as 0.189 E-score.
Sequence AGGCCACT has a binding signal of -0.0512 E-score.
Sequence GGGTTCAA has a binding signal of -0.219 E-score.
Work on TATATTAA yielded a binding signal of 0.364 E-score.
CTAAAGGC was tested, and the binding signal was -0.136 E-score.
For GGCACTGA, the binding signal was -0.158 E-score.
Work on CGACGCAA yielded a binding signal of 0.0906 E-score.
In the case of AACCCGTA, the binding signal is reported as 0.0805 E-score.
CAACAACC gave a binding signal of -0.155 E-score.
In the case of GGAACTCA, the binding signal is reported as -0.128 E-score.
CGGATGTC was tested, and the binding signal was -0.0922 E-score.
ATTACACC gave a binding signal of 0.121 E-score.
With AGAAATCT the binding signal was 0.244 E-score.
In the case of ACTTCAGA, the binding signal is reported as 0.0699 E-score.
GTGGTGAA gave a binding signal of 0.0689 E-score.
ACGCAGCG gave a binding signal of -0.209 E-score.
ACTTACAC gave a binding signal of 0.188 E-score.
CCAATCAA showed a binding signal of -0.122 E-score.
In the case of ACGATCCC, the binding signal is reported as -0.285 E-score.
Work on ACTTCTCT yielded a binding signal of 0.149 E-score.
CTTAATCA showed a binding signal of 0.0499 E-score.
Work on AACCTGAT yielded a binding signal of 0.133 E-score.
CAGATTGA showed a binding signal of 0.00835 E-score.
For CACTAGTC, the binding signal was 0.149 E-score.
CGCCCCTC showed a binding signal of -0.253 E-score.
Sequence CCACTAAC has a binding signal of 0.145 E-score.
Work on CGGTAAAA yielded a binding signal of 0.278 E-score.
With CTACAAGA the binding signal was 0.261 E-score.
Sequence CATCCAAC has a binding signal of -0.00877 E-score.
With CCACTTTA the binding signal was -0.00666 E-score.
ACAGGTGC gave a binding signal of -0.224 E-score.
Sequence CGTGCATA has a binding signal of 0.191 E-score.
ACCGGAAC was tested, and the binding signal was -0.176 E-score.
In the case of ATCGAGTC, the binding signal is reported as 0.0425 E-score.
GTGCCGTA was tested, and the binding signal was 0.016 E-score.
With CGCTTATC the binding signal was -0.0419 E-score.
Sequence ATGGCAAA has a binding signal of -0.0889 E-score.
In the case of AAGTGACT, the binding signal is reported as -0.0431 E-score.
AAACGCCT gave a binding signal of -0.228 E-score.
CCAGTGGC showed a binding signal of -0.269 E-score.
CGAGCTTA was tested, and the binding signal was -0.131 E-score.
CGCCACGA gave a binding signal of -0.194 E-score.
AGGATCGC was tested, and the binding signal was -0.27 E-score.
Work on ACTATTCG yielded a binding signal of 0.188 E-score.
In the case of AACTTACG, the binding signal is reported as -0.0637 E-score.
For AATGTCGT, the binding signal was 0.00109 E-score.
In the case of TCAAGTAA, the binding signal is reported as 0.154 E-score.
CGGTTAGC gave a binding signal of -0.145 E-score.
Sequence ATCCGTAC has a binding signal of 0.113 E-score.
With TATCAACA the binding signal was 0.235 E-score.
With CAGCCAGG the binding signal was -0.19 E-score.
Work on ATATAGGA yielded a binding signal of 0.195 E-score.
Work on ACGGCTGC yielded a binding signal of -0.12 E-score.
For AAACGTAG, the binding signal was 0.129 E-score.
Sequence AGCAGTTC has a binding signal of -0.129 E-score.
In the case of AGGGGGGA, the binding signal is reported as -0.358 E-score.
In the case of GCGCCAGC, the binding signal is reported as -0.215 E-score.
Sequence CACGTTGA has a binding signal of 0.088 E-score.
CGGGAGAC was tested, and the binding signal was -0.261 E-score.
Sequence GCAAACTA has a binding signal of 0.386 E-score.
Work on CGGACGTC yielded a binding signal of -0.0762 E-score.
TAGTCAAA gave a binding signal of 0.0859 E-score.
For AGCCTAGG, the binding signal was -0.0939 E-score.
For GAGAAGAC, the binding signal was -0.158 E-score.
For AGGCTATC, the binding signal was -0.0983 E-score.
ACAGCATC was tested, and the binding signal was -0.0332 E-score.
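Note: rank score from −0.5 (least bound) to 0.5 (best bound).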
